Test results: US11795195B2, “Antibody-drug conjugates including hemiasterlin derivative” (Sumitomo Pharma Co., Ltd., priority 2017, dated 2023)

B1: Example ADC18: ADC of brentuximab and M15, average DAR 7.03 (conjugate, chains of the INN, looked up)
heavy: QIQLQQSGPEVVKPGASVKISCKASGYTFTDYYITWVKQKPGQGLEWIGWIYPGSGNTKYNEKFKGKATLTVDTSSSTAFMQLSSLTSEDTAVYFCANYGNYWFAYWGQGTQVTVSA[human IgG1 constant region left out]
light: DIVLTQSPASLAVSLGQRATISCKASQSVDFDGDSYMNWYQQKPGQPPKVLIYAASNLESGIPARFSGSGSGTDFTLNIHPVEEEDAATYYCQQSNEDPWTFGGGTKLEIKRTVAAPSVFIFPPSDEQLKSGTASVVCLLNNFYPREAKVQWKVDNALQSGNSQESVTEQDSKDSTYSLSSTLTLSKADYEKHKVYACEVTHQGLSSPVTKSFNRGEC
modifications: drug-linker M15, DAR 7.03
B2: Example ADC41: ADC of brentuximab and M47, average DAR 8 (conjugate, chains of the INN, looked up)
heavy: B1 heavy
light: B1 light
modifications: drug-linker M47, DAR 8
B3: ADC51: ADC of Alemtuzumab and M4, average DAR 7.7 (conjugate, chains of the INN, looked up)
heavy: QVQLQESGPGLVRPSQTLSLTCTVSGFTFTDFYMNWVRQPPGRGLEWIGFIRDKAKGYTTEYNPSVKGRVTMLVDTSKNQFSLRLSSVTAADTAVYYCAREGHTAAPFDYWGQGSLVTVSS[human IgG1 constant region left out]
light: DIQMTQSPSSLSASVGDRVTITCKASQNIDKYLNWYQQKPGKAPKLLIYNTNNLQTGVPSRFSGSGSGTDFTFTISSLQPEDIATYYCLQHISRPRTFGQGTKVEIKRTVAAPSVFIFPPSDEQLKSGTASVVCLLNNFYPREAKVQWKVDNALQSGNSQESVTEQDSKDSTYSLSSTLTLSKADYEKHKVYACEVTHQGLSSPVTKSFNRGEC
modifications: drug-linker M4, DAR 7.7

Tests used:
Karpas-299 cells = experiment: Cellular Toxicity Test (2) for ADCs, cell survival relative to brentuximab; assay type: cell-based, human; details: Karpas-299, 2000 ng/mL solution added, 4 days, relative to cells surviving brentuximab treatment
Description: Karpas-299 cells were prepared to be 2×10^6 cells/mL in culture medium A, and were added to a 96 well microplate for cell culturing in an amount of 50 μL for each well. Brentuximab or Example ADCs, the concentration of which was prepared to be 2000 ng/mL with culture medium A, was added to the microplate in an amount of 50 μL for each well, and cultured at 37 degree under 5% CO2 for 4 days. After culturing, the microplate was taken out from the incubator, and was left at rest at room temperature for 10 minutes. To each well, 50 μL of CellTiter-Glo Luminescent Cell Viability Assay (Promega) was added, and the resultant mixture was stirred. This mixture was incubated at a dark place for 20 minutes, and luminescence was measured using a microplate luminometer, thereby determining the percentage of the number of cells that survived upon the treatment with Example ADCs relative to the number of cells that survived upon the treatment with brentuximab.

Raji = experiment: Cellular Toxicity Test (3) for ADCs; assay type: cell-based; details: treatment with 26.6 nM of ADC51
Description: In accordance with the method described in Test Example 3 or Test Example 7, cellular toxicities of Example ADCs were measured using the cell types shown in the following table. As an indicator for the cellular toxicity, IC50 or the cell survival rate upon the treatment with 333 nM of ADC was measured. However, for ADC 51, the cell survival rate upon the treatment with 26.6 nM of ADC51 was measured.

Row | Molecule | Cell survival rate (%) (Karpas-299 cells) | Cell survival rate (%) (Raji)
1 | B1 | 53 | 
2 | B2 | 63 | 
3 | B3 |  | 96
